This passage reports growth results from PubChem BioAssay (NCI).

The source holds several records for some structures; these can differ, active in one and inactive in another.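 Cell lines were cultured in 96-well plates, exposed to a single compound concentration, and assessed for percent growth 48 hours later.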 Not every entry of the source has a single result; some have several. This is not the full list of results. The source may hold further records. The calls were made as follows: active = growth percent below 10; inactive = the rest. Values that stand side by side are repeated measurements across runs, samples, wells, individuals or studies. A tag in brackets gives the origin of a value. A, B and so on number the origins entry by entry. A date in brackets names the month of the test.

Assay in all cases: NCI-60 one-dose screen, 48 h (100 = growth as untreated, 0 = no growth, -100 = all killed)
Common to all, as to conditions: 100 µM

The test system of assay [1] is UACC-62 melanoma.
The subject of assay [2] is TK-10 renal.
Assay [3] concerns MCF7 breast.

With `COC(=O)C1=COC(C)C2CN3CCc4c([nH]c5cc(OC)c(OC)cc45)C3CC12` (stereo not drawn), the growth entry in assay [1] was “inactive: 10.7% [sample A, 1996-05] and active: -88.8% [sample A, 1996-05] and inactive: 73.6%, 10% [sample B, 1996-05]”; in assay [2], “inactive: 52% [sample A, 1996-05] and active: -80.6% [sample A, 1996-05] and inactive: 107%, 30.7% [sample B, 1996-05]”; in assay [3], “active: -12.4%, -60.4% [sample A, 1996-05] and inactive: 75.6% [sample B, 1996-05] and active: 3.42% [sample B, 1996-05]”.
